In the supplement of paper PMC12632987:
The full ranking holds about 4,500 sequences; the median of “median log2 fold change of GCK-ALFA target abundance (FLAG IP / Myc IP barcode read proportion)” is about 0.078, and the lowest 2% start at about -0.6. The list shows a part of the results.

B1: GBRAP_11_2699 (protein)
chain: KKEKLEELRKLAEELAKVLEELIKEGPDNEELRKKAEELLEKIKKLAEEYGDEGMKTLTKILEELWKKALEDKENRVEYLKEAKATARVLAGQALLEIEE
B2: GBRAP_160_4204 (protein)
chain: GEKVEKIIKELREETEEVIEELDEVSVEEAANFADVEFGSVLMEAVELGEENDEILDVIADAGDEVVEYLKENKDASVEERKEKIREITDKAIEKIKEIA
B3: GBRAP_139_3716 (protein)
chain: SALEEKVKKAKEIVKKYRNDLEKLAKELAKLISEEDDEGALAIARAAAEEMKDWSWEKWEEFVELLSKELKKLGFSEDDILAIEGVLEAVYAKHELAKLE
B4: GBRAP_184_5055 (protein)
chain: AIKERVIEAETEEELEEKLEELEEELKDFKGELILLVRVPEFTEEMVELLMERLKEILEKGYVSSATVGLDGKMSEEVIDLAVKLADEAGIKLVIALEEE
B5: GBRAP_128_3165 (protein)
chain: SPEEIVEEVRELVEKMIEADDEEARELAERIADIFLEADLETAERIAEVIIELLPELSEEKLEILIDVLRERRPEFTPEKQELVAEVMVEAGERLLELEE
B6: GBRAP_52_6072 (protein)
chain: MEELIRELAERITAAIAAGDLEEALALLRKAIEELSKEEIRELLVLTARRVAGLSEEAHERFVDLMVEVEDLLIEAGISEEDALLIVGDAEAELAREVAA
B7: GBRAP_128_3170 (protein)
chain: SSEEIVEEVRKLLKEMLTASPEEQRKLAEEIVELFGKADLETAEKIAEVIIELAPEFTEEQLEILADVLREKMPELDPEKQELAAEVIVELGERILELEE
B8: GBRAP_137_3653 (protein)
chain: AKININIEIDGDFADITIKADTKELAELAADILAEVADEEGVAYAISLDEENKTVYADLLGEREKIRRAIEEFVKRLSEKADVNVTLTEDGKTTKETLKK
B9: GBRAP_35_5582 (protein)
chain: DDVEIILETARDFAEAAIEALKGDDLEEAIRMTEAFVRAAELAIEDLKNDLEALKELAKLLEEVLKAAKEYASDNPEMQKNIERLEELLKRAKELAKKVE
B10: GBRAP_11_2664 (protein)
chain: KEETLKKALELAKELAEALKKLIEEGIDNEELIEKAEELLEELEKLAKEKLSKALQSDVEVMKELWEEFLEDEENRLEYAEQLLAAARVLAGNLELELEE
B11: GBRAP_128_3333 (protein)
chain: MDEEKVEKVKELVEKIIEADKEEARKLAEEIAELLKEMSLEEVKKAVEEIKKLLPKLSAEKLEILADVLREKLPEFEPEKAEVVADLQVEALNLAVEKEE
B12: GBRAP_39_5662 (protein)
chain: DEEEENELLFEYYLALAEKERIERGISDEEMIEEGKKLLTELAKEHPEIKEEVEALLKEVDKGDEDVGLAAYGIALLYQEGTPLEEIKEHIEKLLKYVKS
B13: GBRAP_160_4410 (protein)
chain: SEELKKTAEEILEAVEEELELLLELGKIDPKAAAGLLEGTILLEVFEDDSLTEEEEEKLEALAKELAATLEELLKKEGELTEEIKERLLELARKGLEEIL
B14: GBRAP_160_4346 (protein)
chain: SEAAEELIKKVKEATEKVIEELDKVSVEEAAVIAAGEFGAVAMEAALDERYSDEMVDVVIDAMDEIIKFLKENKDASVEELKKGIKEITEKAIKKIKEIA
B15: GBRAP_160_4331 (protein)
chain: MEKFEKLIEYIDEEFERTKELIEGESIEQVKVLIRGTFGEIAMEFSEEESISDELVDFVIEVEDETIKTLEENPDLSLEEIKELIEEAREKIKEALKKEA
B16: GBRAP_184_5168 (protein)
chain: MIEEKEIEVKNKEEAKKKMEEIKEEVKDKKAELYVIVKTEKLTKEIAETIIEELKKMKEEGYVKKIVLDITGEIDEETLDHAIELADEAGIQLVIAIDEE
B17: GBRAP_160_4830 (protein)
chain: SEKLEKFKKFIDEEFEEAIEMMKGQTTEERAAIVAVTFGEIIMEGEELGVFSDELEDFIDEVEDEVVATILANPDLTDEELEELLNEAREKIIEALEKDS
B18: GBRAP_128_3473 (protein)
chain: SVEEVVKETEKIMEEIIKADLEEARKLAEELFARLSTKDLESVEAAVEVIESHLPKLSAEKLEILAEVADAARPAFDPEKAALLADLASTALLLAEEKEE
B19: GBRAP_128_3321 (protein)
chain: MDKEKLAEAKKLAEEMVKASIEEAKELTKKLVALLATATPEEREEIAEIFKEEMKKLSAEKLEAVADTLREQMPTLDPETANVVADLEVEALNEAEEKEE
B20: GBRAP_160_4142 (protein)
chain: KEELEKLIKEIREIAEEAIELIKDSSLEEAKTIAKVALGEIELLVSTNPAVSEETEEKVGEITREAEEQLDEREDATNEEIIALLREAAEKIIEELEKEL
B21: GBRAP_125_3013 (protein)
chain: GLEAAVAALERLGRALGLSEDEVAELGREARAHGVKQALIALFLAEGWEENAELAAQLTEAEAAAALARLVAALDANPDLTPEEVRALALAILREAVAAS
B22: GBRAP_117_2570 (protein)
chain: SELREKAKKEVEEHVERLAKRLEEMKSLSPEEQEKARAEMLEETYELAKKLIEELGKEETLELWEEAIAPLDAETYFEISLLWEDAFNRIKEEEEKEKKE
B23: GBRAP_160_4867 (protein)
chain: SEKLARALAIVQEARDEALAAIAEAPASDRAAIAAAIAGEAIQQLIEEGLVSDELEDKLMAIVDALRAALEANADASVAEWQALVQAAFDAMEAAIKEMM
B24: GBRAP_128_3421 (protein)
chain: SMEEKVEKVKELLEEMLTADPATQKELAREIMQLILESDLETAEAMVEVILEMLPKFTAEQLDILADAGREQLSKFSPEKQELVAEVIVEALNLAEELEE
B25: GBRAP_184_5023 (protein)
chain: KILEEELTVSNVEEARAKLAEVAERAKASKADLILLIKVENPTEEILRAIVEGLGAIKAAGYAEKITVGIDADLTEEQIDFVLDGFDAAGVNVTVAISEK
B26: GBRAP_160_4552 (protein)
chain: SPFVERLVAYARERIDEALELGKEVNPEDALAVLRVAAGDVIMEVMEDPRATDEMEDAVAEVMDALVEDFEARADAPMEEWRALAEEHLAELREKLEALA
B27: GBRAP_35_5568 (protein)
chain: SFDETAADMMVNTIEALTEAVDDIDPKTLLTITKQITEAAKKLVEEIKNNKKALEKILEALEKLLKALEKRGLDNPDIKAAAEAVKEAIEKAKEAIKKAE
B28: GBRAP_184_5246 (protein)
chain: KVIDEEITASTKEEVIEKLDAVRDKAKAEGAKVDLILTLTNATKELVETAMAKIKELRAEGLLNRVEVIIDNYEDEETLELAFDLAHEVGVDALAYDEKE
B29: GBRAP_52_5875 (protein)
chain: MLEEALKLLEEAVKAEKAGKEEELEKILKEIVEKFSEETILEAVKELAEKVLGKSLEEAEAFFRTVERLADILLEAGKSEEIASLMEAIAGATLYKVEQK

Molecular target: GABARAP, O95166
Assay: median log2 fold change of GCK-ALFA target abundance (FLAG IP / Myc IP barcode read proportion) (log2 ratio); each designed protein is fused to an ALFA-tag nanobody in HEK293 cells to bring the named protein to FLAG-tagged glucokinase (GCK); Myc marks an untargeted standard; higher = target protein stabilised (more abundant)
Details: target protein: 3xFLAG-MCP-GCK-ALFA reporter; HEK293 landing pad (RPLP)
Method in brief: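 An ALFA-nanobody-fused binder library was recombined into HEK293 landing-pad cells and induced with 2 μg mL^−1 doxycycline. Cells were transfected with a plasmid expressing a FLAG-tagged target and a Myc-tagged standard. After 48 h, lysates underwent anti-FLAG and anti-Myc immunoprecipitation, and circular RNA barcodes were reverse transcribed, amplified and sequenced. Target abundance is the per-binder median log2 ratio of FLAG to Myc barcode read proportions. Barcodes needed ≥10^−7 proportion in both replicates, binders ≥3 barcodes per replicate, and a 10^−6 pseudocount was added; the two replicates were pooled.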

GABARAP, O95166, sequence (O95166 whole entry, the tested form may be a part): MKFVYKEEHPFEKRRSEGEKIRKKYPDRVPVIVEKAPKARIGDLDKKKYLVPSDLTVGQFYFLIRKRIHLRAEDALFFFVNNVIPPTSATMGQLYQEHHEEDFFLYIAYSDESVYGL

Row | Binder | median log2 fold change
1 | B1 | 0.198
2 | B2 | -0.0853
3 | B3 | 0.146
4 | B4 | -0.0418
5 | B5 | -0.105
6 | B6 | -0.594
7 | B7 | 0.191
8 | B8 | -0.129
9 | B9 | 0.182
10 | B10 | 0.348
11 | B11 | 0.156
12 | B12 | -0.103
13 | B13 | -0.231
14 | B14 | -0.162
15 | B15 | -0.223
16 | B16 | -0.0779
17 | B17 | -0.286
18 | B18 | 0.0955
19 | B19 | 0.43
20 | B20 | 0.259
21 | B21 | 0.196
22 | B22 | 0.429
23 | B23 | 0.176
24 | B24 | -0.0553
25 | B25 | 0.0771
26 | B26 | -0.389
27 | B27 | 0.0635
28 | B28 | 0.283
29 | B29 | 0.0947
